Data reported in article PMC4336329 (PLoS ONE, 2015).
Hit rate of the full screen: of about 310,000 compounds, about 2,200 (0.71%) showed an effect of 50% or more. The effect is printed as a negative number. Some of the results follow.

These compounds were tested against human ether-à-go-go-related gene (hERG) potassium channel (human, UniProt Q12809) (assay: primary screen, population patch clamp on CHO cells stably expressing hERG).
Sequence of human ether-à-go-go-related gene (hERG) potassium channel (Q12809 whole entry, looked up): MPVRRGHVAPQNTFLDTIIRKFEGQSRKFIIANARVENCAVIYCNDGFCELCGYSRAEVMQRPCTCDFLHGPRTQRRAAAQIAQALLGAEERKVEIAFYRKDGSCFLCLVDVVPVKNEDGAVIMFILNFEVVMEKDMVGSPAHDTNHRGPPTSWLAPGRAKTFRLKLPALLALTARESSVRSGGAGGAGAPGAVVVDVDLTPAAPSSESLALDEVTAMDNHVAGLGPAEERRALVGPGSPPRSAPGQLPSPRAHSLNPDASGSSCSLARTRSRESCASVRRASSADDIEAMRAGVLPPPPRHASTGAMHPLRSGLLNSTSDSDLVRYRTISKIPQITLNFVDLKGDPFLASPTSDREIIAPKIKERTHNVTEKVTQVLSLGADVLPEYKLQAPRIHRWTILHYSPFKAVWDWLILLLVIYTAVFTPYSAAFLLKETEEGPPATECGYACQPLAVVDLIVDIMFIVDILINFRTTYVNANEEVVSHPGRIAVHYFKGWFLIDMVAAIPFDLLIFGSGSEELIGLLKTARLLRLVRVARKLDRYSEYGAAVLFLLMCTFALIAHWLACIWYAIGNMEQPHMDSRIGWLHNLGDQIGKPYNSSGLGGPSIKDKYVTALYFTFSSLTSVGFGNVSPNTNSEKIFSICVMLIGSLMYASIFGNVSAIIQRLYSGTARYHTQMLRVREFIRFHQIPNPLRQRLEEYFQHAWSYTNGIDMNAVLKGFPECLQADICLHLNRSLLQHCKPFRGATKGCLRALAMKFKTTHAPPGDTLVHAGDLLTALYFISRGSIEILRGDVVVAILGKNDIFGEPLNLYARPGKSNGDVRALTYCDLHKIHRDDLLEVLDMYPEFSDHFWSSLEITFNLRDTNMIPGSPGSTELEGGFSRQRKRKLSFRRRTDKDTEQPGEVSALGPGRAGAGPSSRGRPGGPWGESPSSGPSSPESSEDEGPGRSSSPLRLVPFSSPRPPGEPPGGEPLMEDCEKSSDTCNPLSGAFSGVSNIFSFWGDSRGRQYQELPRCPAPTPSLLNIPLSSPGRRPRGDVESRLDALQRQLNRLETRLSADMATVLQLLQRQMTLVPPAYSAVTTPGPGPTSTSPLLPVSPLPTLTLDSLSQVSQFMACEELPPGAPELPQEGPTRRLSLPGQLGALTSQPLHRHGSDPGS

Row | SMILES | hERG current change (%, negative = inhibition) at 1uM [%]
1 | COc1ccc(NC(=O)CCCc2ccccc2)cc1OC | 15.6
2 | C=CCOc1cccc(C(=O)/C=C2/C(=O)Nc3ccccc32)c1 | 11.5
3 | O=C(COC(=O)c1cc(S(=O)(=O)N2CCOCC2)ccc1O)Nc1cc(S(=O)(=O)N2CCCC2)ccc1Cl | 9.18
4 | COC(=O)C1CC(=O)c2ccsc2C1 (centres unmarked) | 1.75
5 | CSCCC(NC(=O)c1ccccc1Cl)C(=O)Nc1cccc(S(=O)(=O)N2CCCC2)c1 (centres unmarked) | 13.4
6 | COc1cccc(CNC2CCCCCCC2)c1OC | 14.7
7 | Cc1ccc(NC(=O)C(OC(=O)c2ccccc2Cl)c2ccccc2)cc1Cl (centres unmarked) | 16.1
8 | COc1ccc(CNC(=O)CN(C)S(=O)(=O)c2ccc(Br)s2)cc1 | 1.1
9 | Cc1cc(NC(=O)Nc2cccc(C)c2C)no1 | 18.6
10 | CCCCCCCNC(=O)CN1N=C(c2ccc(C)cc2)CCC1=O | -14.4
11 | CC(Sc1ncccn1)C(=O)NC1CCCC1 (centres unmarked) | 8.95
12 | O=C(CCC1CCCN(C(=O)c2cc3ccccc3o2)C1)NCc1ccc(F)c(F)c1 (centres unmarked) | 5.34
13 | CC1=C(C(=O)OCC(Cl)(Cl)Cl)N2C(=O)C(NC(=O)Cc3ccccc3)C2SC1 (centres unmarked) | 2.34
14 | CC1CCN(S(=O)(=O)c2ccc(C(=O)NCc3cccnc3)cc2)CC1 | 10.4
15 | CCOC(=O)c1sc2nc(C)nc(Nc3ccc(OC)cc3)c2c1C | 2.77
16 | Cc1ccnc(NS(=O)(=O)c2ccc(NC(=O)CCOc3ccccc3)cc2)n1 | 12.9
17 | Cc1nn(C)c(Nc2ccc(Br)cc2)c1Br | 12.5
18 | CCN(CC)c1nc2n(c(=S)n1)CCS2 | 11.9
19 | COc1cccc(NC(=O)CN(C)C(=O)/C=C/c2cn(-c3ccccc3)nc2-c2ccc(C)cc2)c1 | 7.92
20 | COC(=O)c1ccccc1NC(=O)N1CCN(S(C)(=O)=O)CC1 | 15.9
21 | CC(C)CC[n+]1ccn(-c2nc3ccccc3nc2[N-]S(=O)(=O)c2ccccc2)c1 | 13.3
22 | O=C(Cn1nnc(-c2cccs2)n1)NCCc1ccccc1 | 9.34
23 | O=C(NCc1ccccc1)c1csc2c1CCCC2 | 12.7

Row | SMILES | hERG current change (%, negative = inhibition) at 1uM [%]
24 | O=C(c1ccc(F)cc1)N1CCC(N2CCOCC2)CC1 | 3.28
25 | CC(=O)C1C(c2cccc([N+](=O)[O-])c2)C2C(C)=NN=C2CC1(C)O (centres unmarked) | 9.51
26 | Cc1ccc(S(=O)(=O)N(CC(=O)NCC2CCCO2)C2CCCCC2)cc1 (centres unmarked) | 10.6
27 | COc1ccc(Nc2nc3c(C)cccc3cc2C#N)c(OC)c1 | 7.17
28 | COc1ccc(C2c3[nH]c4ccccc4c3C[C@H]3C(=O)N(c4ccccc4C(=O)NCCN4CCOCC4)C(=O)N23)cc1 (some centres unmarked) | -3.64
29 | CC(=O)NC(Cc1ccccc1C)C(=O)NC1CCN(C(=O)c2ccc(C)cc2)CC1 (centres unmarked) | -3.02
30 | OC(CN1CCN(Cc2ccccc2)CC1)c1ccccc1 (centres unmarked) | 0.933
31 | Cc1cc(C)c2c(CC(=O)NCCc3ccccc3)coc2c1 | 14.2
32 | COc1ccc(Cn2c(N)c(S(=O)(=O)c3cccs3)c3nc4ccccc4nc32)cc1 | 2.37
33 | CCCCn1c(N)c(N(CCC(C)C)C(=O)C2CCCC2)c(=O)[nH]c1=O | 9.14
34 | CSc1snnc1-c1ccccc1 | 8.38
35 | Cn1nc(C(F)(F)F)c(-c2ccccc2)c1NC(=O)c1nccnc1C(=O)O | 15.6
36 | CCCCCCSc1cc(-c2nc3cc(C)ccn3c2NC2CCCCC2)ccc1OC.O=C(O)C(F)(F)F | 7.1
37 | Cc1ccc(C)c(Cn2nc(-c3cc(C)ccc3C)ccc2=O)c1 | 13.9
38 | CC(C)NC(=O)c1ccccc1NC(=O)/C=C/c1ccc([N+](=O)[O-])cc1 | -1.61
39 | CC(C)(C)OC(=O)NCCCCCNC(=O)c1[nH]cnc1C(=O)Nc1cccc(Cl)c1 | 12.4
40 | S=C(NCCSCc1ccccc1Cl)Nc1ccccc1 | -6.53
41 | CCCCCn1c(-c2ccco2)nc2nc3ccccc3nc21 | -2.57
42 | COc1ccc(NC(=O)c2cc3c(Cl)nc4ccccc4c3s2)cc1OC | 15.2
43 | Br.Cc1ccccc1OCC(=O)NN1Cc2ccccc2C1=N | 8.9
44 | CC1(c2nnc(-c3cccc(Cl)c3)o2)CC(c2cccnc2)=NO1 (centres unmarked) | 9.7
45 | Cc1csc(NC(=O)CSc2nnc(-c3ccoc3C)n2CCc2ccccc2)n1 | -16.3
46 | CCOC(=O)C1=C(O)CSC1=Nc1ccc(C)cc1 | 3.39

Row | SMILES | hERG current change (%, negative = inhibition) at 1uM [%]
47 | CCC(C)(C)n1nnnc1C(c1cc(OC)c(OC)c(OC)c1)N1CCN(c2ccccc2)CC1 (centres unmarked) | -3.23
48 | Cn1sc(=O)c2cc(S(=O)(=O)NC3CC3)ccc21 | -6.77
49 | Nc1cccc(C#Cc2ccc3c(=O)c4ccccc4oc3c2)c1 | 14
50 | CC(=O)N1CCN(CC(=O)Nc2ccccc2C(=O)NCc2ccc(C)cc2)CC1 | -1.17
51 | c1cnc(NCCNc2ncccn2)nc1 | 5.01
52 | NNC(=O)CNc1cccc(Br)c1 | 12.1
53 | COc1ccc(C)cc1S(=O)(=O)N1CCN(C(=O)c2ncoc2-c2cccc(F)c2)CC1 | 16.9
54 | N#Cc1c(NC(=O)C2CC=CCC2C(=O)O)sc2c1CCCCCC2 (centres unmarked) | 11.3
55 | COc1ccc(-n2ncc3c(N4CCN(Cc5ccccc5)CC4)ncnc32)cc1 | 7.99
56 | Cc1scc(C(=O)N/N=C/c2ccc(Cl)s2)c1C | 12.9
57 | CCn1c(=O)c(C(=O)NNS(=O)(=O)c2ccc(Cl)cc2)c(O)c2ccccc21 | 10.1
58 | O=C(Nc1nnc(C2CC2)s1)c1ccco1 | 4.84
59 | CCN(CC)c1ccc(C(=O)N/N=C/c2ccccc2OC(F)F)cc1 | 10.3
60 | COc1ccc(Br)cc1CN1CCCCCC1 | 5.54
61 | O=C(C1CCCC1)N1CCC(CC2CC(c3cccc(Br)c3)=NO2)(C(=O)NCC2CCCCC2)CC1 (centres unmarked) | -5.33
62 | O=C(CN1CCN(S(=O)(=O)c2ccc(Br)cc2)CC1)N/N=C/c1ccc(Cl)c([N+](=O)[O-])c1 | 2.32
63 | COC(=O)c1ccccc1NC(=O)CCC(=O)N1CCSc2ccccc21 | -0.876
64 | O=C(Nc1ccccc1)N1CCc2c([nH]c3ccccc23)C1C(F)(F)F (centres unmarked) | 4.72
65 | CCC1(CC)NC(=O)N(Cc2nc3ccccc3s2)C1=O | 5.36
66 | Cc1ccc2c(c1)nnn2C1CCN(CC(=O)Nc2ccccc2N2CCOCC2)CC1 | -39.2
67 | C=CCOc1cccc(C2/C(=C(/O)c3ccc(Cl)cc3)C(=O)C(=O)N2CCN2CCOCC2)c1 (centres unmarked) | 1.42
68 | Cc1ccc(NC(=O)C2CCN(S(C)(=O)=O)CC2)cc1C | 18.7
69 | COc1cc2[nH]c3c(N4CCN(c5ccc(Cl)cc5)CC4)ncnc3c2cc1OC | -1.81

Row | SMILES | hERG current change (%, negative = inhibition) at 1uM [%]
70 | COC(=O)c1ccccc1NC(=S)NC(NC(=O)c1ccccc1[N+](=O)[O-])C(Cl)(Cl)Cl (centres unmarked) | 5.77
71 | C/C(CC(=O)NCCCN1CCOCC1)=N\NC(=O)COc1ccc(C)cc1 | 16
72 | COc1ccc(Sc2ncnc3onc(C)c23)cc1 | 9.3
73 | Cc1cccnc1Nc1ncnc(N)c1[N+](=O)[O-] | 1.35
74 | O=C(O)CN1C(=O)/C(=C\C(Br)=C\c2ccccc2)SC1=S | 8.17
75 | Nc1nc(SCc2ccccc2)n[nH]1 | 7.43
76 | Cc1cc(=O)[nH]c(SCC(=O)NNC(=O)Cc2ccccc2)n1 | 7.26
77 | Cc1cc(=O)[nH]c(N/N=C/c2cn(CCC#N)nc2-c2ccccc2)n1 | 9.56
78 | CC(C)(O)C#Cc1ccc(CN2CCN(C3CCCCC3)C(CCO)C2)s1 (centres unmarked) | 19
79 | COc1cccc(-c2nc(=S)c3c(n2CCCO)CCCC3)c1 | 6.81
80 | COc1cc(C(=O)NCCCCc2ccccc2)cc(OC)c1OC | 10.5
81 | CCCc1cc(=O)[nH]c(SCC(=O)N(C)C2CCCCC2)n1 | 13.3
82 | C=CCn1c(=O)c(C(=O)Nc2ccc(C)cc2)c(O)c2ccccc21 | 15.6
83 | CC(C)CN(C(=O)COC(=O)c1ccc([N+](=O)[O-])o1)C1CCS(=O)(=O)C1 (centres unmarked) | -1.06
84 | COc1ccc2c(CC(=O)OCC(=O)Nc3cccc(S(N)(=O)=O)c3)coc2c1 | 11.9
85 | COc1cc(C)ccc1Oc1nc(-c2ccccc2O)nc2ccccc12 | 14.9
86 | Cc1ccc(C(=O)N[C@H](C(=O)OCc2nnc(-c3ccccc3)o2)C(C)C)cc1 | 3.79
87 | CCn1c(SCc2ccc(F)cc2)nc2c(c1=O)SCC2 | 11.5
88 | COc1ccc(-c2cc(C(=O)N3CCN(c4ccccc4)CC3)c3ccccc3n2)cc1 | 8.46
89 | Cc1cc(-n2c(C)cc(C(=O)CN3C(=O)NC4(CCCCC4C)C3=O)c2C)no1 (centres unmarked) | -7.92
